The values below come from the supplement of paper PMC7125110.

B1: glmS ribozyme (parent)
chain: AUAAAAGCGCCAGAACUACAGAAAUGUAGUUGACGAGGAGGAGGUUUAUCGAAUUUUCGGCGGAUGCCUCCAAA

± gives the standard error. Variants at the background level are over-represented here.

What all share (conditions): with glucosamine-6-phosphate
Data set [1] covers variants of B1. Nature of the data set: self-cleavage kobs at 40 uM GlcN6P; higher = faster cleavage; RNA array. The gist of the method:
(§1)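 kcat and KM were obtained from weighted Michaelis–Menten fits across concentrations of kobs values. Those came from one- or two-exponential decay fits to per-tile medians normalised to baseline and to non-cleaving reference variants. The variants were barcoded ribozymes transcribed in situ by E. coli RNA polymerase on sequenced MiSeq chips and tracked through a hybridised Cy3 probe at 37 °C, with 40 μM to 10 mM glucosamine-6-phosphate in HEPES/KCl/Mg(OAc)2 buffer flowed in.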

The variants in data set [2] derive from B1. Nature of the data set: self-cleavage kobs at 640 uM GlcN6P; higher = faster cleavage; RNA array. The gist of the method:
as §1

In data set [3] the parent is B1. Briefly: self-cleavage kobs at 2500 uM GlcN6P; higher = faster cleavage; RNA array. A digest of the protocol: as §1
In data set [4] the parent is B1. Nature of the data set: self-cleavage kobs at 160 uM GlcN6P; higher = faster cleavage; RNA array. The gist of the method:
as §1

The variants in data set [5] derive from B1. Nature of the data set: self-cleavage kobs at 10000 uM GlcN6P; higher = faster cleavage; RNA array. A digest of the protocol:
as §1

For A33C A36G G62U G66A, in the data set with glucosamine-6-phosphate [1], the “self-cleavage kobs at 40 uM GlcN6P” value was under 1e-05 s⁻¹. The “self-cleavage kobs at 640 uM GlcN6P” value in the data set with glucosamine-6-phosphate [2] is under 1e-05 s⁻¹. In addition, the “self-cleavage kobs at 2500 uM GlcN6P” value in the data set with glucosamine-6-phosphate [3] is under 1e-05 s⁻¹.

Consider U31G A42U, for which the “self-cleavage kobs at 40 uM GlcN6P” value in the data set with glucosamine-6-phosphate [1] is under 1e-05 s⁻¹.

Turning to U31G G38U G63A, the “self-cleavage kobs at 40 uM GlcN6P” value with glucosamine-6-phosphate [1] was under 1e-05 s⁻¹.

Regarding C34A G43U C68A, in the data set with glucosamine-6-phosphate [1], the “self-cleavage kobs at 40 uM GlcN6P” value is under 1e-05 s⁻¹. In addition, the “self-cleavage kobs at 160 uM GlcN6P” value with glucosamine-6-phosphate [4] is under 1e-05 s⁻¹.

Regarding A33C G40A C67G, the “self-cleavage kobs at 40 uM GlcN6P” value with glucosamine-6-phosphate [1] is under 1e-05 s⁻¹.

Turning to U31G A33U G38C G44A, the “self-cleavage kobs at 40 uM GlcN6P” value in the data set with glucosamine-6-phosphate [1] was under 1e-05 s⁻¹. In addition, in the data set with glucosamine-6-phosphate [5], the “self-cleavage kobs at 10000 uM GlcN6P” value was under 1e-05 s⁻¹.

On to A33G G40C, for which the “self-cleavage kobs at 40 uM GlcN6P” value in the data set with glucosamine-6-phosphate [1] is under 1e-05 s⁻¹. Also, the “self-cleavage kobs at 2500 uM GlcN6P” value in the data set with glucosamine-6-phosphate [3] was under 1e-05 s⁻¹.

In the case of G32U C34A G51C, in the data set with glucosamine-6-phosphate [1], the “self-cleavage kobs at 40 uM GlcN6P” value was under 1e-05 s⁻¹. The “self-cleavage kobs at 160 uM GlcN6P” value in the data set with glucosamine-6-phosphate [4] was under 1e-05 s⁻¹.

For the variant A33U C34U A39U C71G, the “self-cleavage kobs at 40 uM GlcN6P” value in the data set with glucosamine-6-phosphate [1] was under 1e-05 s⁻¹. In addition, the “self-cleavage kobs at 10000 uM GlcN6P” value with glucosamine-6-phosphate [5] is under 1e-05 s⁻¹.

Regarding G32C C58U, the “self-cleavage kobs at 40 uM GlcN6P” value with glucosamine-6-phosphate [1] was under 1e-05 s⁻¹. The “self-cleavage kobs at 160 uM GlcN6P” value in the data set with glucosamine-6-phosphate [4] was under 1e-05 s⁻¹.

In the case of U31G A33C G63C, the “self-cleavage kobs at 40 uM GlcN6P” value with glucosamine-6-phosphate [1] is under 1e-05 s⁻¹.

For G32A A53U U65C, the “self-cleavage kobs at 40 uM GlcN6P” value in the data set with glucosamine-6-phosphate [1] was under 1e-05 s⁻¹. Moreover, in the data set with glucosamine-6-phosphate [2], the “self-cleavage kobs at 640 uM GlcN6P” value was under 1e-05 s⁻¹. Besides, the “self-cleavage kobs at 160 uM GlcN6P” value with glucosamine-6-phosphate [4] is under 1e-05 s⁻¹.

In the case of A33G G37A G51U C68G, the “self-cleavage kobs at 40 uM GlcN6P” value with glucosamine-6-phosphate [1] was under 1e-05 s⁻¹. For the same variant, in the data set with glucosamine-6-phosphate [5], the “self-cleavage kobs at 10000 uM GlcN6P” value was under 1e-05 s⁻¹.

Turning to G32A U65C, the “self-cleavage kobs at 40 uM GlcN6P” value in the data set with glucosamine-6-phosphate [1] was under 1e-05 s⁻¹.

In the case of U31G U65C, the “self-cleavage kobs at 40 uM GlcN6P” value in the data set with glucosamine-6-phosphate [1] is under 1e-05 s⁻¹.

With A33C C71U, the “self-cleavage kobs at 40 uM GlcN6P” value with glucosamine-6-phosphate [1] was under 1e-05 s⁻¹. In addition, the “self-cleavage kobs at 160 uM GlcN6P” value in the data set with glucosamine-6-phosphate [4] was under 1e-05 s⁻¹. The “self-cleavage kobs at 10000 uM GlcN6P” value with glucosamine-6-phosphate [5] came to 4.08e-05 ± 1e-05 s⁻¹.

C34G A36G: the “self-cleavage kobs at 40 uM GlcN6P” value with glucosamine-6-phosphate [1] is under 1e-05 s⁻¹. Also, in the data set with glucosamine-6-phosphate [2], the “self-cleavage kobs at 640 uM GlcN6P” value is under 1e-05 s⁻¹. For the same variant, in the data set with glucosamine-6-phosphate [4], the “self-cleavage kobs at 160 uM GlcN6P” value is under 1e-05 s⁻¹. The “self-cleavage kobs at 2500 uM GlcN6P” value in the data set with glucosamine-6-phosphate [3] was under 1e-05 s⁻¹. In the data set with glucosamine-6-phosphate [5], the “self-cleavage kobs at 10000 uM GlcN6P” value is under 1e-05 s⁻¹.

In the case of G32U A33C G59A, in the data set with glucosamine-6-phosphate [1], the “self-cleavage kobs at 40 uM GlcN6P” value is under 1e-05 s⁻¹. Besides, the “self-cleavage kobs at 10000 uM GlcN6P” value with glucosamine-6-phosphate [5] was under 1e-05 s⁻¹.

Turning to A33G G66A, the “self-cleavage kobs at 40 uM GlcN6P” value with glucosamine-6-phosphate [1] is under 1e-05 s⁻¹. Besides, the “self-cleavage kobs at 160 uM GlcN6P” value with glucosamine-6-phosphate [4] was under 1e-05 s⁻¹. For the same variant, the “self-cleavage kobs at 10000 uM GlcN6P” value with glucosamine-6-phosphate [5] was under 1e-05 s⁻¹.

Take A33U A42U C61U: in the data set with glucosamine-6-phosphate [1], the “self-cleavage kobs at 40 uM GlcN6P” value was under 1e-05 s⁻¹.

In the case of A33U G44A, the “self-cleavage kobs at 40 uM GlcN6P” value with glucosamine-6-phosphate [1] is under 1e-05 s⁻¹. The “self-cleavage kobs at 640 uM GlcN6P” value with glucosamine-6-phosphate [2] was under 1e-05 s⁻¹. In addition, the “self-cleavage kobs at 160 uM GlcN6P” value with glucosamine-6-phosphate [4] is under 1e-05 s⁻¹. Also, the “self-cleavage kobs at 10000 uM GlcN6P” value with glucosamine-6-phosphate [5] was under 1e-05 s⁻¹.

For the variant U31C U49C C67U, the “self-cleavage kobs at 40 uM GlcN6P” value with glucosamine-6-phosphate [1] is under 1e-05 s⁻¹.

For A33G G43U U46G G59U, the “self-cleavage kobs at 40 uM GlcN6P” value with glucosamine-6-phosphate [1] was under 1e-05 s⁻¹.

Consider U31C G51C U55A G63U C68G C71U, for which the “self-cleavage kobs at 40 uM GlcN6P” value in the data set with glucosamine-6-phosphate [1] is under 1e-05 s⁻¹.

Turning to A33G G44A, in the data set with glucosamine-6-phosphate [1], the “self-cleavage kobs at 40 uM GlcN6P” value was under 1e-05 s⁻¹. For the same variant, in the data set with glucosamine-6-phosphate [2], the “self-cleavage kobs at 640 uM GlcN6P” value is under 1e-05 s⁻¹. The “self-cleavage kobs at 160 uM GlcN6P” value with glucosamine-6-phosphate [4] is under 1e-05 s⁻¹. Moreover, the “self-cleavage kobs at 2500 uM GlcN6P” value with glucosamine-6-phosphate [3] is under 1e-05 s⁻¹. Further, in the data set with glucosamine-6-phosphate [5], the “self-cleavage kobs at 10000 uM GlcN6P” value was under 1e-05 s⁻¹.

On to A33G U46G, for which the “self-cleavage kobs at 40 uM GlcN6P” value with glucosamine-6-phosphate [1] was under 1e-05 s⁻¹. The “self-cleavage kobs at 2500 uM GlcN6P” value with glucosamine-6-phosphate [3] was under 1e-05 s⁻¹. Further, the “self-cleavage kobs at 10000 uM GlcN6P” value in the data set with glucosamine-6-phosphate [5] is under 1e-05 s⁻¹.

For G32U G62C, the “self-cleavage kobs at 40 uM GlcN6P” value in the data set with glucosamine-6-phosphate [1] is under 1e-05 s⁻¹. Also, the “self-cleavage kobs at 640 uM GlcN6P” value in the data set with glucosamine-6-phosphate [2] is under 1e-05 s⁻¹. Besides, the “self-cleavage kobs at 160 uM GlcN6P” value in the data set with glucosamine-6-phosphate [4] is under 1e-05 s⁻¹. The “self-cleavage kobs at 2500 uM GlcN6P” value with glucosamine-6-phosphate [3] is under 1e-05 s⁻¹.

For the variant A33G G37A, the “self-cleavage kobs at 40 uM GlcN6P” value with glucosamine-6-phosphate [1] was under 1e-05 s⁻¹. In the data set with glucosamine-6-phosphate [3], the “self-cleavage kobs at 2500 uM GlcN6P” value was under 1e-05 s⁻¹. Moreover, in the data set with glucosamine-6-phosphate [5], the “self-cleavage kobs at 10000 uM GlcN6P” value is under 1e-05 s⁻¹.

With A33C G38C, in the data set with glucosamine-6-phosphate [1], the “self-cleavage kobs at 40 uM GlcN6P” value is under 1e-05 s⁻¹.
